Test results reported in the supplement of paper PMC11417369.
± gives the standard deviation of the averaged measurements. The list shows a part of the results.

System: PfAP2-I AP2 domain 3 (GST-tagged)
Assay: gcPBM binding intensity (ln(normalized median fluorescence intensity)); higher = stronger DNA binding
Procedure, shortened: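 For binding intensity, the highest Masliner-normalised natural-log median intensity across replicate spots of either probe orientation was taken. Protein bound to the array was stained with Alexa488 anti-GST antibody and scanned at 488 nm. The protein, GST-tagged P. falciparum DNA-binding domains from E. coli at about 25 μg on average, had been applied for 1 h to an Agilent 4 × 180k array of primer-extended double-stranded 36-bp intergenic genomic probes and negative controls.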

| Sequence | gcPBM binding intensity (ln) |
| --- | --- |
| ATATTTTATATGTTCACACATACATAAACATATTTT [CACACA_site4948] | 7.82 ± 0.6 |
| GAATAAAAATTTTAATGTACATATTTTTTATTTATA [XGTACX_site8935] | 7.61 ± 0.36 |
| TACAAATATATAAAATGTACATATATATACATATTA [XGTACX_site3029] | 7.46 ± 0.27 |
| TTTATTTTCATATGAACACACATATAAATATTATAA [CACACA_site7172] | 7.87 ± 0.41 |
| TTTTTATTATTTAAATGTACATATAAATATATATAT [XGTACX_site6870] | 8.76 ± 0.43 |
| CTTACAGACATATATACACACATGTATATTTTATAT [CACACA_site549] | 7.79 ± 0.49 |
| AAGAAGAAACGGAAAAGTACAAAGAAGAAATAAGTA [XGTACX_site3680] | 8.07 ± 0.64 |
| GAGGATGCCTATGGCACACATTATAAAACTGTCGCT [CACACA_site4322] | 8.15 ± 0.56 |
| ATGTTTTTAATTTATTGTACATTAATTTGTATTATT [XGTACX_site253] | 7.92 ± 0.6 |
| TTTTCTTTTCTCTTCTTTTTCTCCCATTATTAATCT [XGTACX_negctrl_site406] | 7.5 ± 0.55 |
| ATTTCATTTATAAGGATATCTACTTTTTATTTTAAT [GTGCAC_negctrl_site59] | 7.56 ± 0.69 |
| AAACGAAAAAAATGGTGTACATTAAAATGAAAATTG [XGTACX_site7040] | 7.91 ± 0.59 |
| TCTATCTTTTCCAAACGTACATTTTTTATATAAATT [XGTACX_site5352] | 7.93 ± 0.6 |
| TATTTTCCCTCCATATGTACTTAATTATAAGCACAT [XGTACX_site4000] | 8.71 ± 0.18 |
| ATATATATCTTTTGTGTGCACATATATATAATATAT | 9.79 ± 0.22 |
| AAAAAAAAAATATACACACACACATACACATAAATA [CACACA_site3808] | 7.94 ± 0.37 |
| TTATATTCTATTTATTGTACTTAAATATATATATAT [XGTACX_site6400] | 8.98 ± 0.23 |
| TATATATCGCATAAAACACACAAAAAAAAAATTAAA [CACACA_site7767] | 7.72 ± 0.33 |
| ATAAAATACATATAAACACACATATAAACCGACATA [CACACA_site2477] | 7.99 ± 0.42 |
| TAAACATAAATATGCACACATATACAGATATTCATA [CACACA_site5471] | 8.645 ± 0.049 |
| TTTTACTTAAGACACACACACACAAAAAAAAAAAAA [CACACA_site6573] | 8.23 ± 0.31 |
| AGTTTTTACTCTAATGGTACAGTGCAACTAATAAAT [XGTACX_site6950] | 9.23 ± 0.085 |
| TTTATGTAAAAATATAGTACATATTAAAAGATAAGA [XGTACX_site8134] | 8.03 ± 0.44 |

| Sequence | gcPBM binding intensity (ln) |
| --- | --- |
| ATATATTCCATAAAGGTGCTGTTAACGTGTCAACGT [GTGCAC_site9402] | 8.81 ± 0.57 |
| TAAGTATACACATACACACACACACTAAAAAAAAAA [CACACA_site6337] | 8.12 ± 0.32 |
| ACTTTATTTTCCTGTACACACATTTGACATATTAAA [CACACA_site3378] | 8.8 ± 0.57 |
| AAAAACAAAAAAAAAACACACAATTCTAGTTATTTT [CACACA_site2767] | 7.26 ± 0.69 |
| CACCAAACTAAATGTACACACATACATAAATATAAA [CACACA_site4765] | 7.99 ± 0.2 |
| TTTTTTTTCCTAATGTGTACTAAAAATGAACAATAA [XGTACX_site5248] | 8.16 ± 0.23 |
| AAAAAAAAGAAACACACACACATACACATAAATATA [CACACA_site3807] | 7.83 ± 0.5 |
| ATATTTTTTTCATAGACACACACAATATATCTGTTT [CACACA_site8993] | 7.96 ± 0.52 |
| TTTTTTATTTTATTTTATTTTTATTTTTTTTTTTTT [GTGCAC_negctrl_site596] | 7.53 ± 0.16 |
| AACATTATTTTGTGTACACATTCGGTTATATTATAT [CACACA_site5628] | 8.41 ± 0.59 |
| ATAACATATTTCTTTTGTACTCAAAATAAAATTAAT [XGTACX_site2479] | 7.79 ± 0.29 |
| AAATATATTTTATTTTGTACTTATGTATAAAATATA [XGTACX_site914] | 7.53 ± 0.3 |
| AATTTTGTTGAGCACACACACATACATACATACATA [CACACA_site3154] | 8.61 ± 0.38 |
| ATTAAATTTCCTTGAGTGCACATTTTGTTAAAATAT | 10.05 ± 0.099 |
| ACGTGATAAATAAATACATGCATAGAAAGATGCATA [TGCATGCA_site91] | 7.68 ± 0.49 |
| TATATATATATATATTGTACTAGTGCATATATATAC [XGTACX_site7926] | 10.7 ± 0.73 |
| TACAATGAAAAAATAACATGCAATTATATTTCTCTT [TGCATGCA_site833] | 8.23 ± 0.74 |
| TTTAAATATTTTAATACACACACGATATGTACAAAA [CACACA_site4455] | 8.01 ± 0.35 |
| ATTTTATTTTCTCACACACACATATATATATATATA [CACACA_site5781] | 9.4 ± 0.54 |
| ACATATGTTAAAAAGGCATGCATTCTTTTTATTTTA [TGCATGCA_site1043] | 7.66 ± 0.83 |
| TTTTTTTTGGTATAATGTACATTTTCACTTATGTAT [XGTACX_site3259] | 8.12 ± 0.67 |
| ACCAAAAAAAAAAAAAAAAAAATATACATATATATA [GTGCAC_negctrl_site582] | 8.12 ± 1 |
